Patent US8841421B2, “S100A9 interaction screening method” (Active Biotech, AB, priority 2007, dated 2014)
Entries after “also recorded” stand apart in the source; their conditions may differ.

Key:
[1] = target: T1, human S100A9 (Homo sapiens, UniProt P06702); assay: Epitope competition: S100A9 pre-incubated with antibody, injected over immobilized mAb 43/8; assay type: binding; details: 100 nM S100A9, antibody 0-400 nM
T1 construct: made in house; host or cells: E. coli
T1 sequence (P06702 1-114): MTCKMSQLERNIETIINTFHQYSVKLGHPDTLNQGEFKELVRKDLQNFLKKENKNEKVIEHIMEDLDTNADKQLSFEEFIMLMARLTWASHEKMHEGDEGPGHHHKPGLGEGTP
Procedure: The assay was performed by coating human anti-S100A9 mAb 43/8 on a CM5 chip at high density (3000 RU) using standard amine coupling chemistry. Human S100A9 (100 nM) was pre-incubated for at least one hour with the anti-S100A9 mAb 43/8 or 1C10 at concentrations of the antibody ranging from 0 to 400 nM. S100A9, with or without antibody, was injected for 3 min at a flow rate of 30 μl/min in sample buffer (HBS-P buffer containing 1 mM Ca^2+ and 20 μM Zn^2+) (1; association phase) followed by injection of sample buffer (2; dissociation phase).
The anti-S100A9 mAb 43/8 recognizes an epitope different to that of the 1C10 anti-human S100A9 antibody. The blocking of S100A9 binding to immobilized anti-S100A9 antibody in the presence of Ca^2+ and Zn^2+ by the anti-S100A9 antibodies in solution was measured by BIACORE™ direct binding assay. S100A9, pre-incubated either with anti-S100A9 antibody 43/8 or 1C10, was injected over immobilized anti-S100A9 antibody 43/8.
Human S100A9, at a concentration of 100 nM, was pre-incubated for at least one hour with either antibody 43/8 or 1C10 in the concentration range 0-400 nM in sample buffer (HBS-P buffer containing 1 mM Ca^2+ and 20 μM Zn^2+). Incubated samples were then injected for 3 min at a flow rate of 30 μl/min (1; association phase) followed by injection of sample buffer (2; dissociation phase). Responses were calculated at late association phase. […]

[2] = tested on: LNCaP cells; assay: NFκB reporter gene assay in LNCaP cells; assay type: cell-based, human; details: 4 h at 37° C.; 10 μM Zn2+
Procedure: (§1) FIG. 22 show NFκB reporter gene activity in human prostate cell line LNCaP cells after stimulation with the anti-S100A9 mAb 43/8. The anti-S100A9 mAb 43/8 induced expression of an NFκB reporter gene transfected (pLR446) into the LNCaP cells. Triplicate cell cultures with 10×10^4 cells (96 well plate) were incubated for 4h at 37° C. in 100 μl RPMI culture medium supplemented with 10% FCS and 10 μM Zn^2+, before the luminescence was measured (Steadylite HTS; Perkin Elmer). PMA (1.5 ng/ml) was used as a positive control and as a negative isotype control mouse IgG1 was used.
as §1, with “The” for “FIG. 22 show NFκB reporter gene activity in”, “prostate cancer” for “prostate”, “express RAGE and one of its known protein ligands S100A9.” for “cells after stimulation with the anti-S100A9 mAb 43/8.”, “4 h” for “4h”

[3] = target: T1, human S100A9; assay: Biacore direct binding of S100 proteins to immobilized anti-S100A9 mAb 43/8
Procedure: The S100 proteins were injected at 100 nM concentration (based on the homo- or hetero-dimeric molecular weight) for 3 min at a flow rate of 30 μl/min in sample buffer (HBS-P buffer containing 1 mM Ca^2+ and 20 μM Zn^2+) (1; association phase) followed by injection of running buffer (same as sample buffer) at (2; dissociation phase). […] Sensorgrams from top to bottom represent injection of 400, 200 and 100 nM S100A9 for 2 min at 30 μl/min in the presence or absence of 1 mM Ca^2+ and 20 μM Zn^2+ in HBS-P and after injection of sample buffer without S100A9 (NSB). Responses at late association phase were plotted versus concentration of S100A9. Data was fit to a one-site hyperbola model in GraphPad
Prism yielding a more than 10-fold higher maximum response in the presence of calcium and zinc (4.9 and 0.46×10^3 RU, respectively).
Assays were performed using the anti-S100A9 mAb 43/8 coated on a CM5 chip at high density (3000 RU) using standard amine coupling. The S100A8 and S100A9 proteins were injected at 100 nM concentration (based on the homo- or hetero-dimeric molecular weight) for 3 min at a flow rate of 30 μl/min in sample buffer (HBS-P buffer containing 1 mM Ca^2+and 20 μM Zn^2+) (1; association phase) followed by injection of running buffer (same as sample buffer) at (2; dissociation phase). […] The binding of the S100A8 and S100A9 proteins to the anti-S100A9 mAb 43/8 was dependent on the metal ions Zn^2+ and Ca^2+. Binding was assayed in absence and presence of 1 mM Ca^2+and 20 μM Zn^2+. It was shown that the presence of both these metal ions were required for binding to the anti-S100A9 mAb 43/8. Responses were calculated at late association phase in the absence or presence of 1 mM Ca^2+ and 20 μM Zn^2+in HBS-P. The other conditions were as stated above.
Various S100 proteins were assayed for binding to immobilized anti-S100A9 mAb 43/8 at 100 nM and in the presence of Ca^2+ and Zn^2+ by BIACORE™ direct binding assay. […] The anti-S100A9 antibody show, in addition to reactivity towards the human S100A8/S100A9 complex, human S100A12 and the murine S100A8/S100A9 complex, only weak or no reactivity for the other assayed human and murine S100 proteins.
Samples were injected for 2 min at 30 μl/min over amine coupled anti-S100A9 mAb 43/8 at a density of ˜3,000 RU. Responses at late association phase (t˜175 s) were calculated using the steady-state affinity model in BIAevaluation. S100 proteins to be analyzed were applied on Fast Protein Desalting Columns to obtain a stock solution of 10 μM protein in HBS-P buffer. […]

[4] = tested on: human monocytes; assay: FACS staining of human PBMCs; assay type: cell-based; details: 30 min at 4° C.
Procedure: Human Peripheral Blood Mononuclear Cells (PBMCs) were incubated with the anti-S100A9 mAb 43/8 antibody, the anti S100A8/A9 antibody 27E10 or an isotype control antibody for 30 min at 4° C. Cell-associated fluorescence signals were measured by using a FACScan flow cytofluorometer.

[5] = tested on: monocytes from human peripheral blood; assay: TNFα production in human peripheral blood monocytes; assay type: cell-based; details: 10 μg/ml; 24 hours
Procedure: FIG. 21 show TNFα production in peripheral Blood Mononuclear Cells after stimulation with beads coated with the anti-S100A9 mAb 43/8. Freshly prepared monocytes from human peripheral blood was incubated with 10 μg/m1 anti-S100A9 mAb 43/8 for 24 hours. As a control, cells were incubated with medium alone (negative control), 10 μg/ml of an isotype matched antibody (negative control) or 0.5 μg/ml lipopolysaccharide (LPS) as a positive control.
To test whether the anti-S100A9 mAb 43/8 had functional properties freshly prepared monocytes from human peripheral blood was incubated with 10 μg/m143/8 for 24 hours. As a control, cells were incubated with medium alone (negative control), 10 μg/ml of an isotype matched antibody (negative control) or 0.5 μg/ml lipopolysaccharide (LPS) as a positive control.

B1: anti-S100A9 mAb 43/8: mouse monoclonal anti-S100A9 antibody; variable chains SEQ ID NO 18 and 20; hybridoma ECACC 13021301 (antibody, listed as Mus musculus, V domains shown)
VL: ASLAVSLGQRATISCRASESVDIYGISFMNWFQLKPGQPPKLLIYAASKQGSGVPARFSGSGSGTDFSLNIHSMEEDDTAMYFCQQSKEVPRTFGGGTKLEIKRADAAPT
VH: PELVKSGASVKISCKASGYSFTDYNINWVKQSNGKSLEWIGLINPNYGTTFYNQKFKGKATLTVDQSSSTAYMQLNSLTSEDSAVYYCARETLLLRYFDYWGQGTTLTVSSAKTTPPSVY
notes: mouse monoclonal anti-S100A9 antibody; hybridoma ECACC 13021301
With B1 the “inhibition of S100A9 binding to immobilized 43/8 compared with antibody 1C10” value [1] was “At least a ten-fold difference in inhibition”, the “inhibition of S100A9 binding to immobilized 43/8 compared with antibody 1C10” value ([1]; listed as antibody 43/8) was “more than ten-fold higher inhibition” and the “NFκB reporter gene activity” value [2] was “induced NFκB reporter gene activity in a dose dependent way”. For the same molecule, the “maximum response with calcium and zinc versus without” value [3] was “more than 10 fold”, the “binding and specificity for S100 proteins (in words)” value ([3]; 100 nM S100 proteins, Ca2+ and Zn2+ present) was “Binding was demonstrated for the human and murine proteins, S100A8, S100A9 and the S100A8/S100A9 complex; also recorded: Specificity for human S100A9” and the “maximum response of human S100A9 binding to immobilized mAb 43/8” value ([3]; absence of Ca2+ and Zn2+) was 0.46 ×10^3 RU. The “maximum response of human S100A9 binding to immobilized mAb 43/8” value ([3]; presence of 1 mM Ca2+ and 20 μM Zn2+) was 4.9 ×10^3 RU, the “interaction with the surface of human monocytes” value [4] was “interact with the surface of human monocytes but with lower efficiency than the 27E10 antibody; also recorded: interact with the surface of human monocytes but with lower efficiency than the 27E10 anti-body” and the TNFα production [5] was “induced a robust TNFα production”.
